The source of these data is the RNAGym collection of RNA variant scans (doi:10.1093/nar/gkz1192).

Read counts are not given, so values of variants with three or more changes are uncertain.

B1: CPEB3 Ribozyme (parent)
chain: UAACAGGGGGCCACAGCAGAAGCGUUCACGUCGCAGCCCCUGUCAGAUUCUGGUGAAUCUGCGAAUUCUGCUGUAUAUCUC

In this data set the parent is B1. Put plainly: self-cleavage, relative activity (ratio to wild type); higher = more cleavage; in vitro, sequencing. Summed up: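 Libraries of CPEB3 self-cleaving ribozyme mutants came from rounds of error-prone PCR and carried barcodes, which DNA sequencing matched to variants. In vitro transcription used T7 RNA polymerase at 37°C for 5 hours, with a further 15 min in DNase I before EDTA stopped the reaction; the ribozymes cleaved during both steps. The RNA was reverse transcribed with template switching and sequenced on Illumina. Relative activity is the cleaved/total read fraction of a variant divided by that of the unmutated ribozyme, averaged over three batches with at least 5 reads.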
Take UAACAGGGGGUCACAGCAGAAGCGUACACGUCGCAGCCCCUGUCAGAUCCUGCUGAAUCUGCGAAUUCUGCUGAAUAUCUC: the self-cleavage came out at 0.14.
Take UAACAGGGGGUCACAGCAGAAGCGUUCACGUCGCAGCCCAUGUCAUAUCCUGGUGAAUCUGCGAAUUCUGCUGUAUAUCUC: the self-cleavage was 0.07.
As for UAACAGGGGGUCACAGCUGAAGCGUUCACGUCGCAGCCCCUGUCAGAUUCAGGUGAAUCUGCGAAUUCUGCUGUAUAUCUC, the self-cleavage amounted to 0.17.
The same measure for UAACAGGGGGUCACGGCAGAAGCGCUCACGUCGCCGCCCCUGUCAGAUCCUGGUGAAUCUGCGAAUUCUGCUGUAUAUCUC: 0.21; for UAACAGGGGGUCACAGCAGAGGCGGUCACGUCGCAGCCCCUGUCAGACUCUGGUGAAUCUGCGAAUUCUGCUGUAUAUCUC: 0.23; for UAACAGGGGGUCCCAGCAGAAGCGUUCACGUCGCAGCCCCUGUCAGAUUCUGGAGAAUCUGCGAAUUCUGCCGUAUAUCUC: 0.08.
With UAACAGGGGGUCACGGCAGAAGCGUUCACGUCGCAGCCCCAGUCAGAUUCUGGUGAAUCUGCGAAGUAUGCUGUAUAUCUC the figure was 0.07; with UAACAGGGGGUCACAGCAGAAGCGUUCACGUCGCAGCCCCUGUCGGAUUCUGGAGAAUCUGCGAAUUCUGCUGUCUAUCUC, 0.39; with UAACAGGGGGUCACAGCAGAAGCGCUCACGUCGCAGCCCCUGUCAGAUUCUGGUGAGUCUGCGAAUUCUGCUGUAUAUCUC, 0.19.
Consider UAACAGGGGGUCACAGCAGAAGCGCUCAUGUCGCCGCCCCUGUCAGAUCCUGGUGAAUCUGCGAAUUCUGCAGUAUAUCUC, for which the self-cleavage worked out at 0.03.
With UAACAGGGGGGCACAGCAGAAGCGUUCACGUCGCAGCCCCUGUCAGAUUCCGGUGAAUCUGCGGGUUCUGCUGUAUAUCUC the figure was 0.07.
With UAACAGGGGGUCACAGCAGAAGCGUUCACGUCGCAGCCCCUGUCAGAUUCAGGUGAAUCUGCGGAUUCGGCUGUAUAUCUC the figure was 0.13.
The same measure for UAACAGGGGGUCACAGCAGAAGCGUUCACGUCGCUGCCCCAGUCAGAUUCUGGUGAAUCUGCGAAUUCUGCUGUAUACCUC: 0.04.
For the variant UAACAGGGGGUCACAGCAGAAGCGCUCACGUCGCAGCCCCUGUCUGAGUCUGGUGAAUCUGCGAAUUCUGCUGUAUAUCUC, the self-cleavage worked out at 0.06.
With UAACAGGGGGUCACAGCAGAGGCGUUCACGUCGCAGCCCCUGUCAGAUUCUGGUGAGUCCGCGAAUUCUGCUGUAUAUCUC the figure was 0.14.
For UAACAGGGGGUCACAGCAGAAGCGUUCACGUCGCAGCCCCUGUCAGAUUCUGGUGAGUCUGCGAAUUCCGCUGUAUAUCUC, the self-cleavage was 0.07.
With UAACAGGGGGUCACAGCAGAAGCGUUCACGUCGCAGCCCCUGUCAGAUUCUGGUGGAUCUGCGAAUUCUGCUGAAUCUCUC the figure was 0.49; with UAACAGGGGGUCACAGCAGAAGCGUUCACGUCGCAGCCCCUGUCAGAUUCUGGAGAAUCUGCGAAUUCUGCUGUAUAUUUC, 0.57.
Consider UAACAGGGGGUCUCAGCAGAAGCGAUCACGUCGCAGCCCCUGUCAGAUUCUGGUGAAUCUGCGAAUUCUGCUGUAUAUCUC, for which the self-cleavage is 0.31.
The same measure for UAACAGGGGGUAACAGCAGAAGCGUCCACUUCGCAGCCCCUGUCAGAUUCUGGUGAAUCUGCGAAUUCCGCUGUAUAUCUC: 0.16.
Turning to UAACAGGGGGGCACAGCAGAAGCGUUCACGUCGCAGCCCCUGUCAGAUUCUGGUGAAUCUGCGAAUUCCGCAGUAUAUCUC, the self-cleavage amounted to 0.1.
Regarding UAACAGGGGGUCACGGCAGAAGCGUUCACGUCGCAGCCCCUAUCAGAUUCUGGUGAAUCUGCGGAUUCUGCUGUAUAUCUC, the self-cleavage was 0.1.
For the variant UAACAGGGGGUCACAGCAGAAGCGCUCACGACGUAGCCCCUGUCAGAUUCUGGCGAAUCUGCGAAUUCGGCUGUAUAUCUC, the self-cleavage was 0.04.
The same measure for UAACAGGGGGUCCCAGCAGAAGCGAUCUCGUCGCAGCCCCUGUCAGAUUCUGGUGAAUCUGCGAAUUCUGCUGCGUAUCUC: 0.05; for UAACAGGGGGUCACAGCAGAAGCGUUCACGUCGCUGCCUCUGUCAGAUUCUGGUGAAUCUGCGAAUUCUGCCGUAUAUCCC: 0.17; for UAACAGGGGGUCACGGCAGAAGCGCUCACGUCGCAGCCCCUGUCUGAUUCUGGUGAAUCUGCGGAUUCUGCUGUAUAUCUC: 0.21.
For UAACAGGGGGUCACGGCAGAAGCGUUCACGUCGCAGCCCCUGUCAGAUUCUGGUGAAUCUGCAAAUUCUGCUGUAUAUCUC, the self-cleavage was found to be 0.45.
Turning to UAACAGGGGGUCACAGCAGAAGCGUUCACGUCGCAGCCCCAGUCUGAUUCUGGUGAAUCUGCGAAUUCUGCCGUAUAUCUC, the self-cleavage was found to be 0.07.
The same measure for UAACAGGGGGUCACAGCAGAGGCGUUCACGUCGCAGCCCCUGUCAGAUUCUGGUGAAUCUGCGUAUUCUGCUGUAUAUCUC: 0.22; for UAACAGGGGGUCACAGCAGAAGCGUUCACGUCGCAGCCCCUGUCCGAUUCUGGUGAAUCUGCGAAUUCUGCUGUACAUCUC: 0.05.
The same measure for UAACAGGGGGUCACAGCAGAAGCGUUCACGACGCAGCCCCUGUCAGAUUCUGGUGAAUCUGCGAAUUCUGCUGUAAGUCUC: 0.13.
With UAACAGGGGGUCACAACAGGAGCGUUCACGUCGCAGCCCUUGUCAGAUUCUGGUGAAUCUGCGAAUUCUGCUGUGUAUCUC the figure was 0.05.
As for UAACAGGGGGUCACAGCAGAAGCGUCCACGUCGCAGCCCCUGUCAGAUUCUGGUGAAUCUGCGAAUUCUGCUGUAUAUCAC, the self-cleavage was 0.26.
For the variant UAACAGGGGGUCACAGCAGAAGCGUUCACGUCGCAGCCCCCGUCAGAUUCUGGUGAAUCUGCGAAUUCUGCUGUACAUCUC, the self-cleavage came out at 0.71.
